# Measured values as given in the BET-seq Pho4 binding data (Le et al. 2018).
# The list shows a part of the results. The energies were worked out here from pooled read counts, against the library average; single values are noisy.
# Molecular target: T1, Pho4 (S. cerevisiae) (UniProt P07270)
# T1 sequence: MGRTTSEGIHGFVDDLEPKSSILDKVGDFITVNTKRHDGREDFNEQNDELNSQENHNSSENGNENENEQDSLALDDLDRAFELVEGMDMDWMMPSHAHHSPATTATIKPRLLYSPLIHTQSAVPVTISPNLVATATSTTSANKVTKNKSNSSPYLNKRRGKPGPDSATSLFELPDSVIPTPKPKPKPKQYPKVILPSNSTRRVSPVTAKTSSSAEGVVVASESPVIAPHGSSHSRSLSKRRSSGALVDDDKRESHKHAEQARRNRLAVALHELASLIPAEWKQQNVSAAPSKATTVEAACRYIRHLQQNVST
# Assay: relative binding free energy (BET-seq); higher = weaker binding
# Conditions: reference: library average
row,Sequence,relative binding free energy
1,ATTATCACGTGGTACA,0.1 kcal/mol
2,TGTCGCACGTGCGTGT,-0.11 kcal/mol
3,TATGTCACGTGGTGCT,-0.01 kcal/mol
4,TTCTGCACGTGATCGG,0.06 kcal/mol
5,GATCGCACGTGGTGGA,-0.2 kcal/mol
6,TGTGACACGTGCGCTG,-0.1 kcal/mol
7,AGTTACACGTGTGTGC,0.1 kcal/mol
8,AGGGGCACGTGCCGTG,-0.04 kcal/mol
9,TTTTGCACGTGCTCGT,-0.15 kcal/mol
10,AGGAGCACGTGTGTAA,-0.11 kcal/mol
11,TGTGGCACGTGTACAG,-0.07 kcal/mol
12,GGGGGCACGTGAATTG,0.3 kcal/mol
13,GAGTCCACGTGTGGGT,0.24 kcal/mol
14,CTAATCACGTGGTTGT,-0.01 kcal/mol
15,CTTTGCACGTGCGTGT,-0.13 kcal/mol
16,TGATGCACGTGGGGGG,-0.16 kcal/mol
17,TTGAGCACGTGTGTAT,-0.03 kcal/mol
18,AAGGGCACGTGGTCGG,-0.2 kcal/mol
19,ATCATCACGTGGTAGT,0.22 kcal/mol
20,TGGCGCACGTGATTCG,0.21 kcal/mol
21,AGAGTCACGTGCGGGC,0.08 kcal/mol
22,AGTGACACGTGAATGA,0.18 kcal/mol
23,GAACGCACGTGGCGGG,-0.12 kcal/mol
24,AGCTGCACGTGTGGGT,-0.02 kcal/mol
25,TATGCCACGTGAGGTA,0.18 kcal/mol
26,ATGATCACGTGGGTTC,0.08 kcal/mol

row,Sequence,relative binding free energy
1,AGGTTCACGTGGGGCT,0.17 kcal/mol
2,AGGGCCACGTGCGGGG,-0.16 kcal/mol
3,CTAGTCACGTGGTATT,0.08 kcal/mol
4,AGAAGCACGTGACGGG,0.06 kcal/mol
5,TAGATCACGTGATTTT,0.14 kcal/mol
6,GGTCGCACGTGGTAGC,-0.04 kcal/mol
7,GTGTTCACGTGTAGGC,0.22 kcal/mol
8,GGGAGCACGTGCGTAG,-0.07 kcal/mol
9,CGGGGCACGTGTAGGT,-0.11 kcal/mol
10,TGACTCACGTGTAGTA,0.16 kcal/mol
11,TTGACCACGTGGAGTG,-0.21 kcal/mol
12,TTTATCACGTGTATGA,0.01 kcal/mol
13,TTGGCCACGTGGTGGG,-0.05 kcal/mol
14,TATTTCACGTGGAAAT,0.28 kcal/mol
15,TCTGGCACGTGATGGC,0.04 kcal/mol
16,ATCAGCACGTGGTGGC,-0.1 kcal/mol
17,GTTTCCACGTGTTGGT,0.19 kcal/mol
18,GGACTCACGTGGCTGT,0.24 kcal/mol
19,GAGCGCACGTGGATGG,-0.13 kcal/mol
20,GTTGTCACGTGTTCGG,0.22 kcal/mol
21,TGGTTCACGTGCATGG,0.35 kcal/mol
22,GTGGGCACGTGCTTTG,-0.02 kcal/mol
23,TTGAGCACGTGGGTTA,-0.22 kcal/mol
24,GCTGTCACGTGGTGCG,-0.02 kcal/mol
25,AGTGTCACGTGGGAGA,-0.06 kcal/mol
26,ATTATCACGTGGGCTG,-0.12 kcal/mol

row,Sequence,relative binding free energy
1,TGGCACACGTGCGTGT,0.05 kcal/mol
2,GTGTGCACGTGAGGCT,0.28 kcal/mol
3,CAGGGCACGTGTGTGT,-0.02 kcal/mol
4,CGGGGCACGTGACTTG,0.16 kcal/mol
5,CTTGTCACGTGGGCCG,0.03 kcal/mol
6,GGTTACACGTGTGTCG,0.15 kcal/mol
7,TATTTCACGTGTATTT,0.29 kcal/mol
8,GATTCCACGTGGGTTG,0.11 kcal/mol
9,ATAAGCACGTGGAGAT,-0.01 kcal/mol
10,CTTTGCACGTGGAGAT,0.04 kcal/mol
11,CGCTTCACGTGAGGTG,0.58 kcal/mol
12,AGTATCACGTGGGTAG,0.01 kcal/mol
13,ATTGACACGTGTATTT,-0.05 kcal/mol
14,ATCAGCACGTGAGGAT,0.25 kcal/mol
15,AGGCGCACGTGTTTAG,-0.05 kcal/mol
16,GGGGGCACGTGGGCCA,-0.12 kcal/mol
17,ATTAGCACGTGTTTGA,-0.1 kcal/mol
18,GTGGGCACGTGGGTGA,-0.17 kcal/mol
19,GGTGACACGTGGCTGG,0.02 kcal/mol
20,CTGTTCACGTGGCATT,0.27 kcal/mol
21,AGTAGCACGTGGGCCG,-0.18 kcal/mol
22,TGGAGCACGTGCGGAA,-0.06 kcal/mol
23,AGTCTCACGTGTTAGG,0.25 kcal/mol
24,TGTGGCACGTGTATTT,0.03 kcal/mol
25,TCACTCACGTGTTTTG,0.33 kcal/mol
26,TGTAACACGTGTTGTT,-0.09 kcal/mol

row,Sequence,relative binding free energy
1,TGGGCCACGTGATGTC,0.21 kcal/mol
2,CTTTGCACGTGCGATT,0.06 kcal/mol
3,TGGCACACGTGGTGGT,0.1 kcal/mol
4,TGCATCACGTGGTGTA,0.04 kcal/mol
5,GATATCACGTGTTGCT,0.14 kcal/mol
6,TGTTACACGTGATTTG,0.26 kcal/mol
7,GAGTGCACGTGGTACT,-0.08 kcal/mol
8,TTTTTCACGTGGTGCT,0.32 kcal/mol
9,TGTGTCACGTGAAGTC,0.32 kcal/mol
10,AGGCTCACGTGATTTA,0.23 kcal/mol
11,TTTGGCACGTGAGTTC,0.25 kcal/mol
12,ACGGGCACGTGTTAGT,-0.2 kcal/mol
13,TAGGTCACGTGCGGAT,0.02 kcal/mol
14,CTGCGCACGTGGGTGT,-0.31 kcal/mol
15,TATTGCACGTGTTCGT,0.01 kcal/mol
16,CGTATCACGTGCGGGG,0.04 kcal/mol
17,AGTAACACGTGGGTAT,-0.21 kcal/mol
18,TGGTGCACGTGTGACG,-0.06 kcal/mol
19,TTAGACACGTGGTTGC,-0.05 kcal/mol
20,AGTTTCACGTGAGCAA,0.37 kcal/mol
21,GCCGTCACGTGGTGTG,0.12 kcal/mol
22,AGGGTCACGTGGCAGG,0 kcal/mol
23,CATTACACGTGAGGTG,0.22 kcal/mol
24,ATGAGCACGTGCTGGT,-0.26 kcal/mol
25,CTTGACACGTGTTGAT,0.07 kcal/mol
26,GTCGGCACGTGGTGAA,-0.12 kcal/mol

row,Sequence,relative binding free energy
1,AGTGACACGTGCATTG,-0.02 kcal/mol
2,CTTTTCACGTGGAGTG,0.1 kcal/mol
3,GGGCTCACGTGGTAAT,0.24 kcal/mol
4,GGCGTCACGTGGGGAA,-0.14 kcal/mol
5,TATTGCACGTGTCTGG,0.11 kcal/mol
6,CTGTGCACGTGGTGCG,-0.1 kcal/mol
7,GGCAACACGTGGTATG,-0.06 kcal/mol
8,TGATCCACGTGTGGAG,0.22 kcal/mol
9,ATAATCACGTGGAGGG,0.15 kcal/mol
10,GAGTACACGTGGTGCT,0.13 kcal/mol
11,AATTGCACGTGGCTGT,0.05 kcal/mol
12,TTGGTCACGTGGGAAA,0.02 kcal/mol
13,TATTTCACGTGAGTGA,0.33 kcal/mol
14,TGCTTCACGTGTTTCA,0.33 kcal/mol
15,TTGTGCACGTGGATGT,0.06 kcal/mol
16,AAGTCCACGTGTTAGG,0.14 kcal/mol
17,GGTCACACGTGCGGTG,0.14 kcal/mol
18,GTGGGCACGTGTGGCA,-0.06 kcal/mol
19,TGAGGCACGTGCCGTT,-0.18 kcal/mol
20,GTACGCACGTGCAGGT,0.04 kcal/mol
21,GGGAGCACGTGATGGC,0.07 kcal/mol
22,TCGCTCACGTGGAGGG,0.19 kcal/mol
23,ATCCGCACGTGGTGTG,-0.23 kcal/mol
24,TTTGTCACGTGGTGAT,0.08 kcal/mol
25,ATGGGCACGTGATGGG,0.03 kcal/mol
26,TAGGTCACGTGGCGTA,0.04 kcal/mol

row,Sequence,relative binding free energy
1,TTTTACACGTGGCTCT,0.19 kcal/mol
2,GCGCTCACGTGTTGTG,0.17 kcal/mol
3,TGCCTCACGTGCGGGT,0.06 kcal/mol
4,GGGATCACGTGATGGA,0.36 kcal/mol
5,GTTGACACGTGCTGGG,-0.11 kcal/mol
6,TTGAGCACGTGTTGAT,-0.04 kcal/mol
7,TTTCGCACGTGTTTCG,-0.08 kcal/mol
8,GAATTCACGTGAATGG,0.39 kcal/mol
9,CGTCGCACGTGGAGTT,0 kcal/mol
10,TGGTTCACGTGTTGAG,0.3 kcal/mol
11,CCTGGCACGTGTGTGT,-0.14 kcal/mol
12,GTAATCACGTGGGGCG,0.11 kcal/mol
13,GTTTGCACGTGTCATA,0.08 kcal/mol
14,GAGGGCACGTGTTGGC,-0.07 kcal/mol
15,TTGATCACGTGAACTG,0.39 kcal/mol
16,ACGTTCACGTGTTGGT,0.23 kcal/mol
17,TGAATCACGTGAGGAG,0.25 kcal/mol
18,GAGGACACGTGGTTAG,-0.09 kcal/mol
19,AATGACACGTGTGTGA,0.01 kcal/mol
20,TATGACACGTGGTTGT,0.02 kcal/mol
21,GGGCGCACGTGTATGT,-0.11 kcal/mol
22,CGGTACACGTGCTTGG,0.05 kcal/mol
23,TGTGACACGTGTAGGG,0.03 kcal/mol
24,AGCTGCACGTGGGAGA,-0.16 kcal/mol
25,GGCTACACGTGTGCGG,0.18 kcal/mol
26,AATCGCACGTGTGGTA,0 kcal/mol

row,Sequence,relative binding free energy
1,CCGGTCACGTGAGTAG,0.32 kcal/mol
2,AAAGGCACGTGTACTG,-0.03 kcal/mol
3,CATGGCACGTGGGTAC,-0.09 kcal/mol
4,TTTAGCACGTGGGTTA,-0.21 kcal/mol
5,CGGATCACGTGTGTAG,0.2 kcal/mol
6,GGCTACACGTGAGTGG,0.24 kcal/mol
7,CTTGGCACGTGGTCGT,-0.17 kcal/mol
8,TTTGGCACGTGTGTCC,-0.08 kcal/mol
9,TTTCACACGTGTTCGT,0.13 kcal/mol
10,TTATTCACGTGGCAAG,0.32 kcal/mol
11,ATGTACACGTGTAGAG,0.06 kcal/mol
12,CTGGGCACGTGGTCGT,-0.18 kcal/mol
13,TGCTGCACGTGTAGGG,0.08 kcal/mol
14,ATAAGCACGTGTGGGA,0.02 kcal/mol
15,AATATCACGTGTAGAT,0.27 kcal/mol
16,TACGGCACGTGGAAGT,-0.01 kcal/mol
17,TGTGGCACGTGTAATA,0.01 kcal/mol
18,GTAATCACGTGATGAT,0.23 kcal/mol
19,AGTGTCACGTGAGGCT,0.07 kcal/mol
20,GGTGTCACGTGGGTTC,0.06 kcal/mol
21,GTAAGCACGTGGACTG,-0.05 kcal/mol
22,TAGTACACGTGGGAGG,-0.08 kcal/mol
23,GCTTTCACGTGAGGGC,0.38 kcal/mol
24,AGTGGCACGTGTTGTC,-0.11 kcal/mol
25,CTTGTCACGTGTTTAT,0.13 kcal/mol
26,AAGGACACGTGTAAGG,0.26 kcal/mol

row,Sequence,relative binding free energy
1,GGAATCACGTGTTGCT,0.18 kcal/mol
2,GTATACACGTGGGCGG,-0.04 kcal/mol
3,AATGGCACGTGTTCTA,-0.02 kcal/mol
4,TTGAGCACGTGAGAGG,0.06 kcal/mol
5,TTTGTCACGTGGTTTA,0.11 kcal/mol
6,CTTAACACGTGTTGTG,-0.14 kcal/mol
7,TAAAGCACGTGGCTTG,-0.13 kcal/mol
8,TCAAACACGTGGTTTG,-0.04 kcal/mol
9,GTAGGCACGTGTAGGC,0.13 kcal/mol
10,GGGAGCACGTGAGGCC,0.28 kcal/mol
11,AGCTGCACGTGAGTTG,0.14 kcal/mol
12,AGATGCACGTGGAGTA,-0.04 kcal/mol
13,GGCTTCACGTGGCGTA,0.16 kcal/mol
14,TTCAGCACGTGGGGCG,-0.22 kcal/mol
15,TTTGCCACGTGTTATT,0.03 kcal/mol
16,TTTGGCACGTGGAGGT,-0.09 kcal/mol
17,GGGCGCACGTGGTGGA,-0.12 kcal/mol
18,AAGCGCACGTGATGTG,-0.03 kcal/mol
19,TGGGACACGTGTATGC,0.11 kcal/mol
20,CGTTTCACGTGAGGAG,0.22 kcal/mol
21,TGGAGCACGTGGGCGC,-0.24 kcal/mol
22,GAGCGCACGTGCTTGG,0.01 kcal/mol
23,AATCTCACGTGGGGTG,0.19 kcal/mol
24,TAGCTCACGTGATGTT,0.36 kcal/mol
25,GGAGGCACGTGGGCGA,-0.22 kcal/mol
26,TAAGTCACGTGCATTT,0.18 kcal/mol

row,Sequence,relative binding free energy
1,ATCTGCACGTGGAGGG,0.03 kcal/mol
2,TCTCGCACGTGTTTTT,0.02 kcal/mol
3,TGATGCACGTGGTTAG,-0.17 kcal/mol
4,TTAGGCACGTGCGATA,0.04 kcal/mol
5,TGATGCACGTGGCGGA,-0.13 kcal/mol
6,TGTGTCACGTGAGCGG,0.29 kcal/mol
7,CTGGGCACGTGTTAGG,-0.07 kcal/mol
8,TGCGGCACGTGTGGCG,-0.13 kcal/mol
9,TTGTGCACGTGGTCAT,-0.15 kcal/mol
10,TGCTACACGTGTGGGT,0.13 kcal/mol
11,AAAGTCACGTGGTCAT,0 kcal/mol
12,CGGCTCACGTGTAGGG,0.11 kcal/mol
13,ATTTACACGTGATCGG,0.18 kcal/mol
14,AGATTCACGTGGACGG,0.19 kcal/mol
15,TGCCGCACGTGGGTTG,-0.15 kcal/mol
16,TGCTGCACGTGGGAAT,-0.07 kcal/mol
17,TTTAGCACGTGGTGGT,-0.21 kcal/mol
18,CTTTACACGTGGGGAT,0.13 kcal/mol
19,TAGGACACGTGTATTA,0.1 kcal/mol
20,CTGGGCACGTGTATTA,-0.07 kcal/mol
21,GATTTCACGTGATTTT,0.65 kcal/mol
22,AATGGCACGTGTTGCG,-0.09 kcal/mol
